# Measurements: a collection of fitness landscapes (doi:10.1126/science.1257360)
# This is one part of the list.
# B1: PhoQ; a variant is named by its letters at X, in order, P23837 (parent)
# chain: MKKLLRLFFPLSLRVRFLLATAAVVLVLSLAYGMVALIGYSVSFDKTTFRLLRGESNLFYTLAKWENNKLHVELPENIDKQSPTMTLIYDENGQLLWAQRDVPWLMKMIQPDWLKSNGFHEIEADVNDTSLLLSGDHSIQQQLQEVREDDDDAEMTHSVAVNVYPATSRMPKLTIVVVDTIPVELKSSYMVWSWFIYVLSANLLLVIPLLWVAAWWSLRPIEALAKEVRELEEHNRELLNPATTRELTSLVRNLNRLLKSERERYDKYRTTLTDLTHSLKTPLXXLQXXLRSLRSEKMSVSDAEPVMLEQISRISQQIGYYLHRASMRGGTLLSRELHPVAPLLDNLTSALNKVYQRKGVNISLDISPEISFVGEQNDFVEVMGNVLDNACKYCLEFVEISARQTDEHLYIVVEDDGPGIPLSKREVIFDRGQRVDTLRPGQGVGLAVAREITEQYEGKIVAGESMLGGARMEVIFGRQHSAPKDE
# Variants of: B1
# Experiment: enrichment ratio after two sorts for PhoP signalling (ratio (wild type AVST 3.29)); higher = more functional
# Conditions: with PhoP (E. coli)
row,Variant,enrichment ratio
1,PHDR,≤ 0.25
2,RKAY,≤ 0.25
3,VHYR,≤ 0.25
4,TRWD,≤ 0.25
5,RVVV,≤ 0.25
6,TNLH,1.37
7,FAME,≤ 0.25
8,EGFR,≤ 0.25
9,AFCT,≤ 0.25
10,ICSL,2.22
11,HGFE,≤ 0.25
12,LHGI,≤ 0.25
13,RIYP,≤ 0.25
14,NKMA,≤ 0.25
15,MISI,9.53
16,HMVY,≤ 0.25
17,YSYQ,≤ 0.25
18,MYVC,≤ 0.25
19,ETPK,≤ 0.25
20,MLAG,≤ 0.25
21,YPML,≤ 0.25
22,DMGS,≤ 0.25
23,VSHQ,≤ 0.25
24,FKFC,≤ 0.25
25,NRFL,≤ 0.25

row,Variant,enrichment ratio
1,TPMM,≤ 0.25
2,ECIL,≤ 0.25
3,DAYV,≤ 0.25
4,PKWT,≤ 0.25
5,VSLN,0.911
6,WRKC,≤ 0.25
7,QNFR,≤ 0.25
8,MLDK,≤ 0.25
9,YACK,≤ 0.25
10,AFWL,≤ 0.25
11,VVIN,≤ 0.25
12,FVVA,≤ 0.25
13,IKWR,≤ 0.25
14,SHML,6.64
15,GSAT,8.69
16,CHTF,≤ 0.25
17,LYRV,≤ 0.25
18,YQVQ,≤ 0.25
19,YKMF,≤ 0.25
20,VSEV,≤ 0.25
21,YHKM,≤ 0.25
22,QVPN,≤ 0.25
23,GKPA,≤ 0.25
24,FGYM,≤ 0.25
25,EMCK,≤ 0.25

row,Variant,enrichment ratio
1,AHSW,≤ 0.25
2,TEQD,≤ 0.25
3,LHFT,≤ 0.25
4,KQPE,≤ 0.25
5,AWRC,≤ 0.25
6,IWCI,≤ 0.25
7,NSRY,≤ 0.25
8,EAVD,≤ 0.25
9,EGYA,≤ 0.25
10,VIRV,≤ 0.25
11,SATN,6.01
12,EQAP,≤ 0.25
13,VSFG,0.292
14,AQWM,≤ 0.25
15,GGML,15.7
16,MNCF,≤ 0.25
17,PYFR,≤ 0.25
18,LYYM,≤ 0.25
19,QIGK,≤ 0.25
20,IKSW,≤ 0.25
21,CINT,5.01
22,WMKY,≤ 0.25
23,INFH,≤ 0.25
24,QSYY,8.21
25,HSIP,≤ 0.25

row,Variant,enrichment ratio
1,TDPE,≤ 0.25
2,FYNN,≤ 0.25
3,MQLM,1.1
4,TVTS,5.87
5,MSCP,≤ 0.25
6,EYEL,≤ 0.25
7,VARH,≤ 0.25
8,GPLK,≤ 0.25
9,ESMT,≤ 0.25
10,AAFI,≤ 0.25
11,VIDD,≤ 0.25
12,VKGS,≤ 0.25
13,PCYH,≤ 0.25
14,WFFT,≤ 0.25
15,GFYI,≤ 0.25
16,SNIC,4.56
17,RFHN,≤ 0.25
18,IKWK,≤ 0.25
19,SGAV,8.75
20,SGME,9.9
21,PHDL,≤ 0.25
22,VTSV,≤ 0.25
23,IVGK,≤ 0.25
24,MRSK,≤ 0.25
25,NWFD,≤ 0.25

row,Variant,enrichment ratio
1,ACGV,≤ 0.25
2,TNKG,≤ 0.25
3,PPNF,≤ 0.25
4,YPDR,7.08
5,NEKR,≤ 0.25
6,GHIA,≤ 0.25
7,TAIN,1.36
8,SELN,8.08
9,SNMV,18.5
10,QNHM,≤ 0.25
11,TPET,≤ 0.25
12,HDHA,≤ 0.25
13,WNVY,≤ 0.25
14,QISS,3.03
15,FVGF,≤ 0.25
16,SHEA,≤ 0.25
17,TWGC,≤ 0.25
18,HMHR,≤ 0.25
19,AVFS,≤ 0.25
20,RLVR,≤ 0.25
21,PQMA,≤ 0.25
22,AWTG,≤ 0.25
23,GDSI,5.59
24,GWLL,≤ 0.25
25,EFGE,≤ 0.25

row,Variant,enrichment ratio
1,TKTV,20
2,HMPE,≤ 0.25
3,FDDN,≤ 0.25
4,VNPC,≤ 0.25
5,MQLT,≤ 0.25
6,DMHW,≤ 0.25
7,QSKV,≤ 0.25
8,YMTC,≤ 0.25
9,FQFG,≤ 0.25
10,LSCD,≤ 0.25
11,RKQH,≤ 0.25
12,NLDL,≤ 0.25
13,QHEP,≤ 0.25
14,FKWE,≤ 0.25
15,GHTS,≤ 0.25
16,LRDN,≤ 0.25
17,RAYL,≤ 0.25
18,IYLW,≤ 0.25
19,FMVL,≤ 0.25
20,PITS,≤ 0.25
21,ILFP,≤ 0.25
22,IGRD,≤ 0.25
23,INRE,≤ 0.25
24,WFCS,≤ 0.25
25,MDMM,≤ 0.25

row,Variant,enrichment ratio
1,KSAD,≤ 0.25
2,YVIH,≤ 0.25
3,FCFS,≤ 0.25
4,THQP,≤ 0.25
5,NECS,≤ 0.25
6,WGLR,≤ 0.25
7,YCPA,≤ 0.25
8,LHGM,≤ 0.25
9,ERCL,≤ 0.25
10,SPRY,≤ 0.25
11,PCKV,≤ 0.25
12,HRDW,≤ 0.25
13,PHME,≤ 0.25
14,RKVV,≤ 0.25
15,IDLG,≤ 0.25
16,LQLA,≤ 0.25
17,VEGK,≤ 0.25
18,YSGH,≤ 0.25
19,YMWW,≤ 0.25
20,ERWH,≤ 0.25
21,LFDT,≤ 0.25
22,TNSV,19.4
23,DSPY,≤ 0.25
24,QMKH,≤ 0.25
25,DPLY,≤ 0.25

row,Variant,enrichment ratio
1,VSQV,≤ 0.25
2,DWLC,≤ 0.25
3,TWHE,≤ 0.25
4,QMDS,≤ 0.25
5,MCNM,≤ 0.25
6,YKNY,≤ 0.25
7,DWCI,≤ 0.25
8,NRRN,≤ 0.25
9,PFRL,≤ 0.25
10,RQHH,≤ 0.25
11,KFMS,≤ 0.25
12,IMKQ,≤ 0.25
13,GMVK,≤ 0.25
14,WHFV,≤ 0.25
15,YAYP,≤ 0.25
16,RMLT,≤ 0.25
17,WVST,≤ 0.25
18,FPNP,≤ 0.25
19,YKLA,≤ 0.25
20,YSYT,≤ 0.25
